In the supplement of paper PMC7826260:
Some of the results follow. The data describe in vitro nicking of single-stranded DNA by Rep domains at 3 µM enzyme and 37 °C for 1 h; the strands have 90 letters, of which the middle is given. The score is log2 (uncut reads / reads without enzyme); more negative means more cut, near 0 not cut, and no call is made. Reads are scaled to the total, so uncut sequences can rise above 0 when many others are cut.

How the values were obtained:
Assay in all cases: uncleaved DNA left, log2 of reads against the no-enzyme library (log2 ratio); higher = less cleavage (more negative = more Rep cleavage of the k-mer); sequences stand for … in CTCGTCCG…ACCGGAGA
[1] = test system: T1, Rep nickase domain of Muscovy duck circovirus
T1 sequence (Rep 1-111, printed without the tag): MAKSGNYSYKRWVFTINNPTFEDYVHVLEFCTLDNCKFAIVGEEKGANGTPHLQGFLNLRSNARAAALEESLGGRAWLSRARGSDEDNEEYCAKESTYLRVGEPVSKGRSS
Method: (§1)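 A pool of 90-nt single-stranded DNAs with seven random bases just before the constant AC of the nick site (name = the seven bases) was cut by 3 µM recombinant His6-SUMO-tagged Rep nickase domain (300 nM DNA, 50 mM HEPES pH 8.0, 50 mM NaCl, 1 mM MnCl2, 1 h, 37 °C, three replicates). Uncut DNA was amplified and sequenced.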

[2] = test system: T2, Rep nickase domain of banana bunchy top virus
T2 sequence (Rep 1-94, printed without the tag): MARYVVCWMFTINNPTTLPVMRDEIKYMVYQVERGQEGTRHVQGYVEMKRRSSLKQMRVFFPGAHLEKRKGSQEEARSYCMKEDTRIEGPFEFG
Method: as §1

[3] = test system: T3, Rep nickase domain of cabbage leaf curl virus
T3 sequence (Rep 1-116, printed without the tag): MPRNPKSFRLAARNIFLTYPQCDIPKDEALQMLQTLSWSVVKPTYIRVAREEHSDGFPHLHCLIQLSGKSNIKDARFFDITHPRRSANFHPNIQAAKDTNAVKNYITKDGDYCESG
Method: as §1

[4] = test system: T4, Rep nickase domain of chickpea chlorotic dwarf virus
T4 sequence (Rep 1-124, printed without the tag): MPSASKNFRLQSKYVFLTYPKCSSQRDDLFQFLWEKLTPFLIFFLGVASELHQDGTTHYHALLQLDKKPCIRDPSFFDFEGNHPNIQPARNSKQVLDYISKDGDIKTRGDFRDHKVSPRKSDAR
Method: as §1

[5] = test system: T5, Rep nickase domain of faba bean necrotic yellows virus
T5 sequence (Rep 1-98, printed without the tag): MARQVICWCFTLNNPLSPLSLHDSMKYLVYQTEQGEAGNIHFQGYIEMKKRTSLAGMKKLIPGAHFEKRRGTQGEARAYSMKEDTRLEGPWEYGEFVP
Method: as §1

[6] = test system: T6, Rep nickase domain of maize striate mosaic virus
T6 sequence (Rep 1-117, printed without the tag): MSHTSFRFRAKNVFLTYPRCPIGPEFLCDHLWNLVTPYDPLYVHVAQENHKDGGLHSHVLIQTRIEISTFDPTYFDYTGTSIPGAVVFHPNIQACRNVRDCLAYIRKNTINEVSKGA
Method: as §1

[7] = test system: T7, Rep nickase domain of porcine circovirus 2
T7 sequence (Rep 2-116, printed without the tag): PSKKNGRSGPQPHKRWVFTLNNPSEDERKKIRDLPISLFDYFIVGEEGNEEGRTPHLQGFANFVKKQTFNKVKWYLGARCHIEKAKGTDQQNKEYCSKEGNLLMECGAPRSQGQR
Method: as §1

[8] = test system: T8, Rep nickase domain of tomato yellow leaf curl virus
T8 sequence (Rep 1-136, printed without the tag): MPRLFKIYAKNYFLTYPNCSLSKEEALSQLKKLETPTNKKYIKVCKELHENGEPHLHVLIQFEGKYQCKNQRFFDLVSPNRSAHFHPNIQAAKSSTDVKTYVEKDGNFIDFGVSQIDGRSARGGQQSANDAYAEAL
Method: as §1

[9] = test system: T9, Rep nickase domain of wheat dwarf virus
T9 sequence (Rep 1-137, printed without the tag): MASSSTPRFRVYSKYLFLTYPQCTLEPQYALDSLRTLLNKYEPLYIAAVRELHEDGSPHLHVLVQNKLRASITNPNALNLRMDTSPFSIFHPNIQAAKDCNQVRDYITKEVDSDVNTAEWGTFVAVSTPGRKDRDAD
Method: as §1

Sequence	uncleaved DNA left (log2) [1]	uncleaved DNA left (log2) [2]	uncleaved DNA left (log2) [3]	uncleaved DNA left (log2) [4]	uncleaved DNA left (log2) [5]	uncleaved DNA left (log2) [6]	uncleaved DNA left (log2) [7]	uncleaved DNA left (log2) [8]	uncleaved DNA left (log2) [9]
GCGTAAA	-0.161	-0.00466	-0.0301	0.325	-0.0654	0.106	-0.183	-0.175	0.0371
CTCGATA	-0.0921	0.0235	-0.223	-1.32	0.158	-0.493	-0.242	-0.0281	-0.0946
CAGGAGA	0.0441	-0.0129	0.136	0.924	-0.0686	0.652	0.142	-0.0616	0.0725
GGTCTGG	0.0294	0.0686	0.495	0.939	0.00179	1.12	0.2	0.149	0.126
GAAGGCA	0.0612	0.0658	0.421	0.843	-0.0182	0.754	0.102	0.0392	0.00678
CGAGTTA	-0.137	-0.0268	-0.245	-0.698	-0.0321	-0.116	-0.702	-0.051	-0.00831
CCAATTA	0.0284	0.0201	0.0789	-1.16	0.15	-0.666	0.109	-0.0345	0.197
TCTGTCG	0.0822	-0.182	-0.841	0.0915	-0.0371	-1.05	0.108	-0.107	-0.118
CTTTGTG	0.0771	-0.103	-0.863	0.478	0.0723	-0.499	-0.0315	0.112	-0.0407
AGGCTCG	-0.0362	-0.063	-0.475	-0.625	-0.0606	-0.846	0.0922	-0.0372	0.0113
GTCGACT	0.00386	-0.0934	0.0822	0.643	-0.0723	1.57	-0.0961	-0.161	0.00685
GGGTAAT	-0.00811	0.0877	0.86	1.96	-0.119	2.26	-1.09	-0.0524	0.137
TGCAAAT	-0.0391	0.0837	0.0591	-0.114	-0.0152	-0.366	-0.136	0.042	0.0532
CCGCGAA	-0.178	-0.227	-0.53	-0.536	-0.247	-0.909	-0.155	-0.371	-0.324
CAATTCT	-3.9	-0.605	-4.36	-3.6	-0.103	-3.59	-3.92	-0.452	-3.95
TCGCCAG	0.0193	0.105	-0.00039	0.00226	0.121	-0.442	0.174	0.104	-0.0242
TAGCCAC	0.0401	-0.0415	0.0433	-0.132	-0.137	-0.364	-0.311	0.0433	-0.0384
AATGAGG	0.135	0.0483	0.318	0.798	-0.014	0.261	0.155	0.00218	0.187
GATTCAT	-0.373	-0.504	0.386	0.901	-0.0444	1.62	-2.63	0.223	0.191

Sequence	uncleaved DNA left (log2) [1]	uncleaved DNA left (log2) [2]	uncleaved DNA left (log2) [3]	uncleaved DNA left (log2) [4]	uncleaved DNA left (log2) [5]	uncleaved DNA left (log2) [6]	uncleaved DNA left (log2) [7]	uncleaved DNA left (log2) [8]	uncleaved DNA left (log2) [9]
GACAATC	0.0596	0.099	0.35	0.965	-0.0393	0.862	0.194	0.123	0.114
ACGTCCT	-0.189	0.0223	-0.261	-1.78	-0.106	-0.498	-1.45	-0.134	-0.2
CGCCCCG	-0.0349	0.0018	-0.566	-0.174	-0.00854	-0.651	0.0112	-0.132	-0.00153
CGTGATG	0.24	0.0747	0.0363	0.37	0.118	0.126	0.0356	-0.0311	0.0452
AACTATC	0.0486	-0.143	-0.116	-0.683	0.0247	-0.8	-2.5	0.0358	0.013
ACCCAAA	0.0222	0.129	0.0781	-0.0806	0.0478	-0.745	0.094	-0.0156	0.0993
AAGATCG	0.125	0.0619	-0.67	-0.433	0.145	-0.833	0.289	0.139	-0.0805
TAGCCAG	0.11	0.0455	-0.372	-0.584	0.0934	-0.924	0.136	0.0788	0.135
TACCCGA	0.00973	-0.0885	-0.311	-1.36	0.0258	-0.901	-0.905	0.0229	-0.196
CGAATCT	0.109	0.0407	-0.171	-1.56	0.0576	-0.204	-0.0446	-0.0608	0.0592
TTGCTTT	0.0473	-0.0103	-0.363	-1.75	-0.00383	-0.915	-0.309	0.0688	-0.0714
CTATTTG	0.0379	0.0522	-0.727	-0.534	0.0554	-1.07	0.143	0.0665	-0.0632
TAGTACA	-0.473	-0.371	-0.922	-2.53	-1.07	-0.0368	-3.32	0.125	-0.637
CAGTAGA	-0.0106	-0.27	-0.305	-0.585	-0.0436	-1.27	-2.55	-0.0672	-0.212
AGACCGG	0.14	0.109	0.363	1.16	0.0887	0.891	0.14	0.0828	0.174
GTGGGGC	0.0684	0.0365	0.592	1.34	0.0387	1.93	0.168	0.0192	0.13
ATCACCA	-0.0234	-0.0308	-0.187	-0.984	-0.0626	-0.236	-0.184	-0.125	-0.0318
ACAGGGT	0.0491	0.0828	0.293	1.14	0.184	0.994	0.241	0.0354	0.0949
AGAGCTT	-0.0133	-0.0571	0.281	0.208	-0.0215	1.09	-0.143	-0.0998	-0.0423

Sequence	uncleaved DNA left (log2) [1]	uncleaved DNA left (log2) [2]	uncleaved DNA left (log2) [3]	uncleaved DNA left (log2) [4]	uncleaved DNA left (log2) [5]	uncleaved DNA left (log2) [6]	uncleaved DNA left (log2) [7]	uncleaved DNA left (log2) [8]	uncleaved DNA left (log2) [9]
CGTAACG	0.00444	-0.0117	-0.729	-0.487	-0.0797	-1.18	0.192	-0.0302	-0.018
CAATTGA	0.0785	-0.0308	-0.593	-0.693	0.0699	-1.2	-0.0478	0.0707	0.0122
TACCATG	-0.0411	-0.0901	-0.637	-0.969	-0.0489	-0.924	-0.291	-0.0984	-0.204
TATGTGT	0.0535	-0.0866	-0.527	-1.23	0.0699	-1.03	-0.0512	0.0153	-0.108
CTCCTTG	-0.0791	0.0259	-0.723	-1.5	-0.0932	-1.12	0.162	0.0336	-0.0436
CCGGTGG	0.0776	-0.00502	0.418	0.625	0.189	0.998	0.198	-0.000417	0.00932
TGAATAT	0.0923	0.242	0.298	-0.249	0.0466	0.0828	-0.0849	0.167	0.178
GGACCGA	0.121	0.146	0.693	1.55	0.0549	1.86	0.214	0.0618	0.241
GTGAAAG	0.144	0.191	0.00514	0.163	0.209	-0.458	0.311	0.229	0.258
GCAAACA	0.104	0.19	0.11	-1.24	-0.00657	-0.021	0.156	0.0455	0.0634
GATTCAG	-0.00641	-0.0277	-0.371	-0.455	-0.0264	-1.01	0.0789	0.0469	-0.0681
TGTGCTA	-0.104	-0.083	0.168	0.438	-0.0418	0.941	-0.0285	0.044	-0.0395
ATGACTA	0.0132	0.0651	-0.0718	0.685	0.0992	0.475	-0.0188	0.0587	0.186
TGCATTA	-0.0947	0.0462	-0.107	-0.464	0.0319	-0.506	-0.11	0.0267	0.0383
TGTCCAT	0.0257	0.0904	0.254	0.232	0.00829	0.625	-0.049	0.118	0.0627
GAATCGC	0.0486	0.121	-0.618	-0.654	0.136	-0.806	0.176	0.136	0.00797
TCCTCCA	-0.122	-0.13	-0.00212	-0.857	-0.102	0.189	-0.279	-0.125	-0.131
ACTCGTG	0.108	0.138	-0.681	-0.274	0.194	-0.882	0.235	0.0433	-0.0473
